PubChem BioAssay AID485294 (National Center for Advancing Translational Sciences (NCATS), 2010)
Out of some 370,000 compounds screened, about 150 (0.041%) were called active. The shares of active, inactive and inconclusive entries below differ from those in the screen. Calls follow the shape of the dose curve; as a rule, active = well fitted inhibition curve with a large enough effect; inconclusive = small, poorly fitted or top-dose-only effect; inactive = flat fitted curve, though single readings scatter. No potency is given beside an inconclusive call; the fits are too rough.

What follows are compounds tested against Beta-lactamase (Escherichia coli (strain K12)) (UniProt P00811) (assay: qHTS Inhibitors of AmpC Beta-Lactamase (assay with detergent)). Settings: AmpC hydrolysis of nitrocefin, absorbance 480 nm, 0.01% Triton; activity change, negative = inhibition: at 114 µM (top of the series).
Summary of the method: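 20 mM phosphate pH 7.0 + 0.01% (detergent screen) or 0.0001% Triton X-100; 5.3 nM AmpC reagent; cpd preinc 15 min RT; nitrocefin (800 uM stock) to start; A480 q20 s × 4 min; Activity was normalised to no-enzyme and no-compound control wells.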
Also: nearly all actives have a fitted effect of over 25% in size.
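For activity change, negative = inhibition in this document: 0% = no-compound wells and -100% = no-enzyme wells.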
Potency is read from the fitted curve at half-maximal effect; tags tell the direction and shape of the fitted curve.

UniProt P00811, sequence (P00811 whole entry, looked up): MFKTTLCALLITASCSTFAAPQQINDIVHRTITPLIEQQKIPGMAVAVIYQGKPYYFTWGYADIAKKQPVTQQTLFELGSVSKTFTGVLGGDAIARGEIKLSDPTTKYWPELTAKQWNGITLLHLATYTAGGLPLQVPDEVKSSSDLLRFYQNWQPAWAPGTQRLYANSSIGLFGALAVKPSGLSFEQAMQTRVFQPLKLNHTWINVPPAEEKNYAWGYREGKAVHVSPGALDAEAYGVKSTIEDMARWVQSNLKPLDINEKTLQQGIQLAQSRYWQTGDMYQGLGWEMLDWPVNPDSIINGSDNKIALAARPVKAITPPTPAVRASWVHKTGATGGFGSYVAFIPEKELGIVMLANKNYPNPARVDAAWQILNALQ

| SMILES | Potency | activity change, negative = inhibition |
| --- | --- | --- |
| Cc1ccn2cc(CCNS(=O)(=O)c3ccc(F)c(C(F)(F)F)c3)nc2c1 | inconclusive [inhibitor, full curve, poor fit] |  |
| Cc1cccc2c1c(N=NC(N)=S)c(O)n2C1OC(CO)C(O)C(O)C1O (stereo unspecified) | inconclusive [inhibitor, full curve, poor fit] |  |
| O=C(NCCc1ccccc1)C1CCN(S(=O)(=O)c2ccc(-n3cnnn3)cc2)CC1 | inconclusive [inhibitor, full curve, poor fit] |  |
| CCOC(=O)c1cnc2c(-c3ccc(F)cc3)cnn2c1C(F)(F)F |  | inactive: -6.04% |
| CCN(CC(=O)Nc1ccc2c(c1)OCCO2)C(=O)c1cc(=O)[nH]c2ccccc12 | inconclusive [inhibitor, partial curve, poor fit] |  |
| O=C(NCc1cccnc1)c1ccc2c(c1)OCO2 |  | inactive: -6.09% |
| O=C(CCCSc1nc2ccccc2[nH]1)NC1=NCCS1 |  | inactive: -5.72% |
| Clc1cccc(CNCCCSc2ncccn2)c1Cl | inconclusive [inhibitor, partial curve, poor fit] |  |
| O=C(O)CCNS(=O)(=O)c1ccc(Oc2ccccc2Cl)cc1 | inconclusive [inhibitor, single point] |  |
| O=[N+]([O-])c1cccc(NP(=O)(Oc2ccccc2)Oc2ccccc2)c1 | inconclusive [inhibitor, full curve, poor fit] |  |
| Cc1ccc(C(=O)N[C@H](C(=O)Nc2ccc(N3CCOCC3)cc2)C(C)C)cc1 | inconclusive [inhibitor, partial curve] |  |
| CC(=O)c1cccc(Nc2nc(-c3sc(C)nc3C)cs2)c1 |  | inactive: 0.0572% |
| O=C(c1ccccc1)c1ccccc1C(=O)N1CCOCC1 | inconclusive [inhibitor, single point] |  |
| CC(=O)Nc1ccc(-c2nc3cc(Cl)ccc3o2)cc1 |  | inactive: -0.458% |
| Cc1nn2c(=O)cc(CSc3nc4ccccc4[nH]3)nc2s1 | inconclusive [inhibitor, partial curve, poor fit] |  |
| O=C(CCNS(=O)(=O)c1ccc(Br)s1)NC1CCCC1 | inconclusive [inhibitor, single point] |  |
| Cc1ccccc1N(CC(=O)NCCSCc1ccccc1)S(C)(=O)=O |  | inactive: 2.11% |
| Nc1nc(SCc2ccc([N+](=O)[O-])cc2)nc2nc3c(cc12)CCCC3 | inconclusive [inhibitor, full curve, poor fit] |  |
| CCOc1ccc(C(=O)NCC(=O)OCC(=O)N2CCCCC2)cc1 | inconclusive [inhibitor, single point] |  |
| COc1cccc(Cn2nnc(C(=O)Nc3cc(Cl)ccc3OC)c2N)c1 | inconclusive [inhibitor, full curve] |  |
| CS(=O)(=O)c1ccc2nc(NC(=O)c3ccccc3)sc2c1 | inconclusive [inhibitor, partial curve, poor fit] |  |
| Cc1ccc(CNC(=O)C(NS(=O)(=O)c2ccc3nc(C)sc3c2)C(C)C)cc1 (stereo unspecified) | inconclusive [inhibitor, full curve, poor fit] |  |

| SMILES | Potency | activity change, negative = inhibition |
| --- | --- | --- |
| Cc1ccccc1C(=O)NC(=S)N(C)C1CCCCC1 |  | inactive: 4.83% |
| N#Cc1cc2c(nc1SCC(=O)Nc1sc3c(c1C#N)CCC3)CCC2 | inconclusive [inhibitor, partial curve, poor fit] |  |
| COC(=O)[C@H](Cc1ccccc1)NC(=O)O[C@@H]1C(=O)c2cc(OC)ccc2O[C@H]1c1ccc(OC)c(Br)c1 | inconclusive [inhibitor, full curve] |  |
| Cc1ccnc(NC(=O)CCCc2ccccc2)c1 |  | inactive: -6.73% |
| COC(=O)Nc1sc2nc(C)cc(C)c2c1-n1cccc1 | inconclusive [inhibitor, single point] |  |
| O=C(NCC#CCSc1nnc(-c2cccc3ccccc23)o1)c1cccs1 | inconclusive [inhibitor, full curve, poor fit] |  |
| COc1ccc(CNCC(=O)Nc2ccccc2-n2cccc2)cc1 | inconclusive [inhibitor, partial curve, poor fit] |  |
| CCCn1c(C(C)Nc2nc(C)cs2)nc2cc(Cl)c(Cl)cc21 (stereo unspecified) |  | inactive: -7.42% |
| FC(F)(F)c1cc(CO[C@@H]2CCCN[C@@H]2c2ccccc2)cc(C(F)(F)F)c1 | inconclusive [inhibitor, full curve, poor fit] |  |
| COc1cc(/C=C(\C#N)c2nc3ccccc3[nH]2)cc(Cl)c1OCc1ccccc1Cl |  | inactive: -0.639% |
| Cc1cc(NC(=O)c2cccs2)ncc1NC(=O)C(C)(C)C | inconclusive [inhibitor, full curve] |  |
| Cc1ccc(NC(=O)COC(=O)c2ccc(CN3CCCC3=O)cc2)cc1C | inconclusive [inhibitor, full curve, poor fit] |  |
| CC1CCCCC1NC(=O)CN1C(=O)NC(C)(c2ccc(OC(F)F)cc2)C1=O (stereo unspecified) | inconclusive [inhibitor, full curve, poor fit] |  |
| COc1cccc(CN(C(=O)/C=C/c2ccco2)C2CCS(=O)(=O)C2)c1 (stereo unspecified) |  | inactive: 1.3% |
| Cc1ccc(S(=O)(=O)NC(=O)CSc2nc3ccccc3s2)cc1 | inconclusive [inhibitor, full curve, poor fit] |  |
| Cc1c[n+]([O-])n(-c2ccc(C(=O)O)cc2)n1 | inconclusive [inhibitor, full curve, poor fit] |  |
| O=C(N=C1SC2CS(=O)(=O)CC2N1c1ccccc1C(F)(F)F)C1CCCO1 (stereo unspecified) |  | inactive: 3.54% |
| O=C(C1=C(O)C(=O)N(CC2CCCO2)C1c1cccc(Cl)c1)c1ccco1 (stereo unspecified) | inconclusive [inhibitor, full curve, poor fit] |  |
| O=S(=O)(c1ccccc1C(F)(F)F)N1CCC(n2cnc3ccccc32)CC1 | inconclusive [inhibitor, full curve] |  |
| COc1ccc(C2c3c(ncn(CCN4CCOCC4)c3=N)Oc3ccc4ccccc4c32)cc1OC (stereo unspecified) | inconclusive [inhibitor, full curve, poor fit] |  |
| Cc1cc(C)c2c(N=NN3CCCCC3)[nH]nc2n1 | inconclusive [inhibitor, partial curve] |  |
| CCOc1ccc2nc(N3CCCC(C(=O)NCC4CCCO4)C3)sc2c1 (stereo unspecified) |  | inactive: -3.23% |

| SMILES | Potency | activity change, negative = inhibition |
| --- | --- | --- |
| O=C(Nc1ccnn1C1CCN(Cc2ccc(CO)o2)CC1)c1ccc2c(c1)OCO2 | inconclusive [inhibitor, partial curve] |  |
| CC1CC1C(=O)N(CCC1=CCCCC1)c1c(N)n(Cc2ccccc2)c(=O)[nH]c1=O (stereo unspecified) | inconclusive [inhibitor, partial curve, poor fit] |  |
| COc1ccc(S(=O)(=O)N2CCCC2CNC(=O)C(=O)NCc2cccs2)cc1 (stereo unspecified) | inconclusive [inhibitor, full curve] |  |
| COc1cc(OC)c(NC2(c3ccccc3)C(=O)c3ccccc3C2=O)cc1Cl |  | inactive: 0.722% |
| CCOc1ccc(C(=O)NC(=S)N(Cc2ccccc2)Cc2ccccc2)cc1 |  | inactive: -6.73% |
| Cc1ccc(-c2nn(-c3ccccc3)cc2C(=O)NCCCN2CCCC2=O)cc1 | inconclusive [inhibitor, single point] |  |
| CC(=O)Nc1ccc(NC(=O)c2nc(S(=O)(=O)Cc3cccc(C)c3)ncc2Cl)cc1 |  | inactive: -5.06% |
| COc1cccc(NC(=O)CSc2nc3cc(OC)c(OC)cc3c3nc(-c4ccccc4)nn23)c1 |  | inactive: -0.47% |
| CCC(=O)NNc1nc2c(F)cc(F)cc2s1 | inconclusive [inhibitor, single point] |  |
| Cc1nnc(Sc2cc(C(=O)NCc3ccco3)c3ccccc3n2)s1 |  | inactive: -8.33% |
| CCOc1ccc(-n2nc3c(Cl)nnc(C)c3c2C)cc1 |  | inactive: -10.3% |
| O=C(NC(=S)NNC(=O)c1ccccc1O)c1ccc([N+](=O)[O-])cc1 | inconclusive [inhibitor, partial curve, poor fit] |  |
| Cc1csc(NC(=O)CCc2nc3ccccc3s2)n1 |  | inactive: -5.34% |
| CC(C)C[C@@H](CC#N)N1CCN(CCc2ccccc2)CCC1=O | inconclusive [inhibitor, partial curve, poor fit] |  |
| CCCCn1c(N)c(N(CC(C)C)C(=O)C2CCN(S(=O)(=O)c3ccc(C)c(C)c3)CC2)c(=O)[nH]c1=O | inconclusive [inhibitor, full curve, poor fit] |  |
| Cc1ccc(-c2nnc(N3CCN(C(=O)COc4ccccc4)CC3)c3ccccc23)cc1 | inconclusive [inhibitor, full curve, poor fit] |  |
| Cc1onc(-c2ccccc2)c1C(=O)N1CCCc2ccccc21 | inconclusive [inhibitor, full curve] |  |
| CC(C)Oc1cccc(C(=O)Nc2ncn[nH]2)c1 | inconclusive [inhibitor, full curve, poor fit] |  |
| COc1ccccc1-c1cc(SC)c(C#N)c(=O)o1 | inconclusive [inhibitor, partial curve] |  |
| CCC(c1ccccc1)c1nc(-c2ccccn2)no1 (stereo unspecified) | inconclusive [inhibitor, partial curve, poor fit] |  |
| COc1ccccc1N1CCN(C(=O)c2ccc(S(=O)(=O)N3CCCCC3)cc2)CC1 | inconclusive [inhibitor, single point] |  |
| O=S(=O)(c1ccc2c(c1)OCO2)N1CCN(c2nnnn2-c2ccccc2)CC1 | inconclusive [inhibitor, partial curve, poor fit] |  |
